For the assay, the system named is NCI-H322M lung. In words: NCI-60 cell line screen, 48 h.

Several values for one entry are separate records, joined by “and”; a condition that tells them apart may be missing. Identical values can stand only once.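 Interpolation was linear, between the two tested concentrations surrounding the appropriate level; five concentrations were tested over 48 hours in 96-well plates. GI50 is the concentration that inhibits growth by half. TGI marks complete inhibition of growth.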 Peptide text beside a SMILES is read from it.

`Nc1ncnc2c1ncn2C1CC(OC2CCCCO2)C(CO)O1` (stereo not drawn) gave a TGI of over 100 µM.
Turning to `COc1cc2c(cc1OCCCN1CCN(c3ncnc4ccccc34)CC1)N=CC1CCCN1C2=O` (stereo not drawn), the GI50 is 0.145 µM and the TGI is 0.665 µM.
`Cc1ccccc1NC(=O)c1ccc([N+](=O)[O-])cc1` displayed a TGI of over 100 µM.
On the same count and under the same terms, with `CC1=CC(=O)c2ccc(C)cc2C1=O` the figure was 32.1 µM; with `COc1ccc(CNC(=O)[C@@H]2CCCN2C(=O)[C@@H]2CCCN2C(=O)[C@H](C(C)C)N(C)C(=O)[C@@H](NC(=O)[C@H](C(C)C)N(Cc2ccccc2)Cc2ccccc2)C(C)C)cc1OC` (HELM PEPTIDE1{[CC(C)[C@@H](C(=O)[*:2])N(Cc1ccccc1)Cc1ccccc1].V.[meV].P.P.[COc1ccc(CN[*:1])cc1OC]}$$$$V2.0), 29.9 µM; with `C=C[C@H]1C=Cc2c(OC)cccc2[C@@H]1COP1(=S)NC(C)C(c2ccccc2)O1` (stereo partly drawn), over 100 µM.
On to `COC(=O)[C@H](COC(=O)/C=C/c1ccc(OC(C)=O)c(OC(C)=O)c1)NC(=O)/C=C/c1ccc(OC(C)=O)c(OC(C)=O)c1`, for which the TGI was found to be 36.8 µM.
As to `CC(=O)C1=C(O)CCC1=O`, the TGI was over 100 µM.
Molecule `N#CSc1ccc(S(N)(=O)=O)cc1` returned a TGI of over 100 µM.
`Clc1ccc2c(NCCNc3nc(N4CCCC4)nc4ccccc34)ccnc2c1`: the GI50 was 1.55 µM and the TGI was determined as 3.88 µM.
For `Cn1c(=N)n[n+]([O-])c2ccccc21`, the TGI is 25.6 µM and 29.8 µM.
Regarding `COc1cnc2c(c1)C(=O)c1c-2n(CCCNC(C)C)c(=O)c2cc([N+](=O)[O-])ccc12`, the GI50 was 0.0546 µM and the TGI was determined as 0.668 µM.
Taken in the same sequence, the figures for `COc1cc(/C=C2\C[C@H]3[C@@H]4CC=C5C[C@@H](OC(C)=O)CC[C@]5(C)[C@H]4CC[C@]3(C)[C@H]2OC(C)=O)ccc1OCCN1CCCCC1` were 18.8 µM and over 50 µM.
Take `Fc1cccc(-c2[nH]nc3nc(Nc4cccnc4)sc23)c1`: the GI50 was over 100 µM and the TGI was over 100 µM.
`Cc1ccc(S(=O)(=O)Nn2c(O)c(C#N)c(-c3ccc(N(C)C)cc3)c(C#N)c2=O)cc1`: the TGI is over 50 µM.
For `Cc1c(CC/C(=N\Nc2ccc([N+](=O)[O-])cc2[N+](=O)[O-])c2ccccc2)c2ccccc2n1C`, the TGI is over 100 µM.
In the case of `CCN(CC)C(=S)SS(=O)(=O)c1ccc(NC(C)=O)cc1`, the TGI was over 100 µM.
On the same count and under the same terms, then `COC(=O)Cc1cc(=O)n2c([nH]c3ccccc32)c1C#N`, with over 100 µM; and `Cc1cc(N(CCOS(C)(=O)=O)CCOS(C)(=O)=O)ccc1C=Nc1ccc(-c2csc(-c3ccc(Br)cc3)n2)cc1`, with 30.7 µM.
For the molecule `CC(CN)[C@@H]1CC[C@]2(CO)CC[C@]3(C)[C@H](CC[C@@H]4[C@@]5(C)CCC(N)C(C)(C)[C@@H]5CC[C@]43C)[C@@H]12` (stereo partly drawn), the GI50 is 1.63 µM and the TGI came out at 3.08 µM.
With `CC(C)C1COC(c2ccc3ccccc3c2-c2c(O[Si](C)(C)C(C)(C)C)ccc3ccccc23)=N1` (stereo not drawn), the TGI was 30.8 µM.
On the same count and under the same terms, then `Fc1c(F)c(C(F)(F)F)c(F)c(F)c1N/N=C/c1cn(Cc2ccccc2)c2ccccc12`, with 51.6 µM; and `O=c1/c(=C/c2ccc([N+](=O)[O-])o2)sc2n1[C@@H](c1ccc3c(c1)OCO3)C=C(c1cc(F)c(Cl)cc1Cl)N=2`, with over 100 µM; and `COc1ccccc1NC(=O)C(CC(C(=O)Nc1ccccc1OC)/C(C)=N/NC(=O)c1ccccc1O)/C(C)=N/NC(=O)c1ccccc1O` (stereo not drawn), with over 100 µM.
On to `C/C(=C\c1ccn(-c2ccc(N)cc2F)n1)[C@@H]1C[C@@H]2O[C@]2(C)CCC[C@H](C)[C@H](O)[C@@H](C)C(=O)C(C)(C)[C@@H](O)CC(=O)O1`, for which the GI50 was 0.0247 µM and the TGI was over 50 µM.
`O=c1ccnc(SCc2ccc(Cl)cc2)[nH]1` gave a TGI of over 100 µM.
Take `CCOC(=O)c1c(CN2CCCC2)n(-c2ccccc2)c2cc(Br)c(OC)cc12`: the TGI came to 83.8 µM.
Take `CN(C)CCCN1c2ccccc2CCc2cc([N+](=O)[O-])ccc21`: the TGI is 60.6 µM and 31.6 µM.
Molecule `CC1C(O)Oc2cc3c(cc2C1c1ccccc1O)OCO3` (stereo not drawn) came in with a TGI of over 100 µM.
On the same count and under the same terms, with `COc1ccc(C2C(C=O)C(N3CCN(C)CC3)=Nc3nc4ccccc4n32)cc1` (stereo not drawn) the figure was 59.8 µM; with `CCn1c2ccccc2c2cc(NC(=O)c3c(NCCNCCO)nc(=O)[nH]c3C)ccc21`, over 100 µM; with `COC(=O)c1ccccc1C1CN=NC12Cc1cc(C)cc(C)c1C2=O` (stereo not drawn), over 100 µM.
The same measure, in the same setting: then `COc1ccc(C2C3=C(COC3=O)Oc3cc4c(cc32)OCO4)cc1` (stereo not drawn), with over 100 µM; and `COc1cccc(Nc2nc(N)nc(N)c2N=O)c1`, with 83.9 µM.
On to `CNC(=O)CN1CCC(Oc2cc3c(Nc4cccc(Cl)c4F)ncnc3cc2OC)CC1`, for which the GI50 was < 0.01 µM and 0.0166 µM; the TGI is 11.3 µM and > 10 µM.
On to `Clc1ccc(-c2nnc(-c3c(Cl)c(Cl)c(Cl)c(Cl)c3-c3nc4ccccc4[nH]3)o2)cc1`, for which the TGI is over 100 µM.
The same measure, in the same setting: then `CCOP(=O)(OCC)C(F)(F)Cc1cnc(C)c2c1COC(C)(C)O2`, with over 10 µM.
On to `COc1cc2c3c(n(CCCN4CCCC(O)C4)c(=O)c2cc1OC)-c1cc2c(cc1C3=O)OCO2` (stereo not drawn), for which the GI50 is 0.819 µM and the TGI worked out at 1.75 µM.
Molecule `O=c1cc(-c2cccc(OCc3ccccc3)c2)[nH]c2cc3c(cc12)OCO3` showed a TGI of over 100 µM.
Still for that read-out and setting: then `O=S(=O)(CCCCl)SCCCCl`, with over 100 µM; and `CC[C@H]1C=CCC[C@@]2(C[C@@H]3CC[C@H]4[C@H](C(=O)OCCCCCCCCCCCCCCCC(=O)N(CCCN)C[C@@H](O)CCN)[C@]5(CCC[C@@H](C)O5)NC(=[N+]34)N2)O1`, with 2.48 µM; and `CCOC(=O)c1cc(C#N)[nH]c1-c1ccsc1`, with over 100 µM.
Take `Cc1c(-c2nnc(-c3cc(Cl)c(Cl)cc3Cl)o2)nnn1-c1ccnc2c(C(F)(F)F)cccc12`: the GI50 is 34.4 µM and the TGI was over 100 µM.

For the origin of these results see PubChem BioAssay (NCI).
